Assay results reported in PubChem BioAssay AID504466 (National Center for Advancing Translational Sciences (NCATS), 2011).
In all, about 330,000 compounds went through this assay and about 4,200 (1.3%) were called active. This list was built around the results that the source calls inconclusive (neither active nor inactive); the mix of calls is not that of the screen. Calls come from the whole dose curve; as a rule, active = well fitted activation curve with a large enough effect; inconclusive = small, poorly fitted or top-dose-only effect; inactive = no such curve, though single readings can be large or run the other way. Where the call is inconclusive, the potency comes from a doubtful curve fit.

experiment: qHTS screen for small molecules that induce genotoxicity in human embryonic kidney (HEK293T) cells expressing luciferase-tagged ELG1; conditions: HEK293T ELG1-luciferase reporter, luminescence, 16 h; series mostly up to 46 µM; activity change, positive = activation: at the top concentration; note: nearly all actives have a fitted effect of over 60% in size; for activity change, positive = activation: % of control where 0% means no effect
Procedure, shortened: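 Cells (2,000/well) expressing the ELG1-luciferase fusion are dosed by pin tool and kept 16 hr at 37 °C, 5% CO2. Signal comes from ONE-Glo luciferase reagent after 30 min at room temperature.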
Potency is the fitted concentration of half-maximal effect; tags give direction and shape of the fitted curve.

| SMILES | Potency | activity change, positive = activation |
| --- | --- | --- |
| N/C(=N\OC(=O)c1ccc(F)cc1)c1ccc(Br)cc1 | inconclusive: 5.8 µM [activator, partial curve, poor fit] | – |
| COc1ccc(-c2nnc(N(C)C(=O)C3CCCO3)s2)cc1 (configuration not stated) | inconclusive: 16.4 µM [activator, partial curve] | – |
| O=C(NC(=S)Nc1ccc2c(c1)OCCO2)c1ccccc1 | inconclusive: 1.64 µM [activator, partial curve] | – |
| Cc1ccc(NC(=O)CS(=O)c2ccccc2N)c(C)c1 (configuration not stated) | inconclusive: 25.9 µM [activator, single point] | – |
| Cc1ccc(SCc2cn3ccccc3n2)cc1 | active: 5.17 µM | – |
| Clc1ccc2nc(COc3ccccc3)[nH]c2c1 | inconclusive: 9.2 µM [activator, partial curve, poor fit] | – |
| CCOC(=O)N1CCN(Cc2nc(-c3ccccc3)no2)CC1 | inconclusive: 23.1 µM [activator, partial curve] | – |
| Cc1ccc(NC(=O)c2cccc3c2C(=O)N(C2CCCCC2)C3)c(Cl)c1 | – | inactive: -2.35% |
| CC(C)Oc1ccc(C(=O)NC2=NCCS2)cc1 | inconclusive: 1.46 µM [activator, partial curve, poor fit] | – |
| Cc1cccc(OCC(=O)NCC(=O)N/N=C/c2cc(Br)cc(Br)c2O)c1 | inconclusive: 32.6 µM [activator, partial curve, poor fit] | – |
| NC(=O)c1cc([N+](=O)[O-])ccc1NCc1ccc(O)cc1 | inconclusive: 9.2 µM [activator, partial curve, poor fit] | – |
| CCCCn1c(NCCC)nc2c1c(=O)[nH]c(=O)n2C | inconclusive: 20.6 µM [activator, partial curve, poor fit] | – |
| O=c1[nH]c(=O)n(-c2ccccc2)c2c1C(C(F)(F)F)(C(F)(F)F)N=C(CCC1CCCCC1)N2 | – | inactive: -3.79% |
| Cc1csc(SCC(=O)NC2CCC(C)CC2)n1 (configuration not stated) | inconclusive: 8.2 µM [activator, partial curve] | – |
| COc1nnc(-c2ccccc2)s1 | – | inactive: 4.44% |
| O=c1/c(=C\c2cccn2-c2ccccc2)sc2nc3ccccc3n12 | active: 4.61 µM | – |
| COc1cc(OC)cc(C(=O)NCC(=O)Nc2ccc(-c3ccccc3)cc2)c1 | inconclusive: 20.6 µM [activator, partial curve, poor fit] | – |
| COc1ccc(NC(=O)N2CCc3ccccc3C2)cc1 | inconclusive: 11.6 µM [activator, partial curve] | – |
| O=C(c1cc(-c2ccc(Cl)cc2)on1)N1CCOCC1 | active: 0.92 µM | – |
| Cc1cccc(C(=O)O/N=C(\N)c2ccc(Br)cc2)c1 | active: 11.2 µM | – |
| COc1ccc2c(Cl)c(C(=O)NCCCn3ccnc3)sc2c1Cl | inconclusive: 25.9 µM [activator, partial curve, poor fit] | – |
| COc1ccc(-c2cc(C(=O)Nc3cccnc3)no2)cc1OC | inconclusive: 16.4 µM [activator, partial curve] | – |
| Cc1cc(NC(=O)C(=O)NCCN2CCN(S(C)(=O)=O)CC2)ccc1Br | inconclusive: 20.6 µM [activator, single point] | – |
| Cc1cc2ncc(-c3ccc(Cl)cc3)c(N)n2n1 | active: 14.6 µM | – |
| Cc1ccc(C(=O)N2CCCC(C(F)(F)F)C2)cc1S(=O)(=O)N1CCCCC1 (configuration not stated) | inconclusive: 25.9 µM [activator, single point] | – |
| CC1CCN(S(=O)(=O)c2ccc3c(c2)N(CC(=O)NCCCN2CCCC(C)C2)C(=O)CO3)CC1 (configuration not stated) | – | inactive: 0.809% |

| SMILES | Potency | activity change, positive = activation |
| --- | --- | --- |
| CCn1cc(S(=O)(=O)Nc2ccc3c(c2)OCCO3)cn1 | inconclusive: 16.4 µM [activator, single point] | – |
| O=c1c(-c2nc3ccccc3s2)cccn1Cc1ccccc1 | active: 7.31 µM | – |
| O=C(O)c1ccc2c(c1)C(=O)N(CCc1c[nH]c3ccccc13)C2=O | inconclusive: 18.3 µM [activator, partial curve, poor fit] | – |
| O=C(Nc1cccc(-c2nn[nH]n2)c1)c1ccc(Br)s1 | – | inactive: -1.32% |
| CCOc1cccc(-c2cc(C(=O)Nc3ccon3)c3ccccc3n2)c1 | – | inactive: -6.03% |
| CNC(=O)CSc1nc2c([nH]c3ccccc32)c(=O)n1CCOC | inconclusive: 18.3 µM [activator, single point] | – |
| Oc1ccc(Nc2nc(-c3ccc(O)cc3)cs2)cc1 | active: 8.2 µM | – |
| COc1cc(SC)ccc1C(=O)Nc1nc(C)cs1 | active: 0.058 µM | – |
| COc1ccc(C2=NCN(c3ccc(C)cc3)C(=S)N2)cc1 | active: 16.4 µM | – |
| NC(=O)N/N=C/c1cn(-c2ccccc2)nc1-c1cccs1 | inconclusive: 18.3 µM [activator, partial curve, poor fit] | – |
| Fc1ccc(-c2nc(-c3cccs3)no2)cc1 | inconclusive: 7.3 µM [activator, partial curve] | – |
| O=C(c1cc(-c2ccccc2Cl)on1)N1CCCC1 | inconclusive: 3.98 µM [activator, partial curve, poor fit] | – |
| COc1ccc(C)cc1NC(=O)CSc1nnc(-c2cc(C)[nH]n2)n1N | – | inactive: 0.814% |
| CCOC(=O)c1c(-c2ccccc2)cn2c(C)cc(C)nc12 | active: 16.4 µM | – |
| O=C(/C=C/c1ccc(Cl)cc1Cl)Nc1ccncc1 | inconclusive: 23.1 µM [activator, partial curve, poor fit] | – |
| CS(=O)(=O)N1N=C(c2ccc(Br)cc2)CC1c1cccs1 (configuration not stated) | inconclusive: 16.4 µM [activator, partial curve] | – |
| Cc1ccc(C(=O)Oc2ccc(C(=O)COC(=O)C3CC(=O)N(Cc4ccco4)C3)cc2)cc1 (configuration not stated) | inconclusive: 23.1 µM [activator, partial curve, poor fit] | – |
| CCCCCNc1nc(-c2ccccc2)cs1 | active: 7.31 µM | – |
| O=C(Nc1cccc(-c2nc3cccnc3s2)c1)C1c2ccccc2Oc2ccccc21 | inconclusive: 5.17 µM [activator, full curve] | – |
| Cc1cccc(/C=N/NC(=O)c2ccc(Br)cc2)c1 | inconclusive: 23.1 µM [activator, partial curve, poor fit] | – |
| Cc1ccc(-c2nnc(Cc3ccc([N+](=O)[O-])cc3)o2)cc1 | inconclusive: 32.6 µM [activator, single point] | – |
| Cc1oc(-c2ccc(-c3ccccc3)cc2)nc1CN(CCO)C(C)C | inconclusive: 1 µM [activator, partial curve, poor fit] | – |
| CCC(=O)N1CCc2cc(S(=O)(=O)NC(Cc3ccccc3)C(=O)NC3CCCCC3)ccc21 (configuration not stated) | inconclusive: 18.4 µM [activator, partial curve, poor fit] | – |
| O=C(/C=C/c1ccccc1)NCc1cccnc1 | – | inactive: 6.35% |
| CC(=O)Nc1ccc(N=Nc2ccccc2)cc1 | active: 10.3 µM | – |
| Cc1occc1C(=O)Nc1cccc(Cl)c1Cl | inconclusive: 20.6 µM [activator, partial curve, poor fit] | – |

| SMILES | Potency | activity change, positive = activation |
| --- | --- | --- |
| CCCn1c(/C=C/c2ccccc2)nc2ccccc21 | inconclusive: 2.59 µM [activator, full curve, poor fit] | – |
| Cc1cc(C(=O)N2CCc3c([nH]c4ccccc34)C2c2cccc(Cl)c2)nn1C (configuration not stated) | – | inactive: -10.6% |
| Brc1ccc(N=NNc2ccccc2)cc1 | inconclusive: 18.3 µM [activator, partial curve] | – |
| Cc1ccc(O)c(NC(=O)CCC2CCCCC2)c1 | inconclusive: 13 µM [activator, partial curve, poor fit] | – |
| O=c1c(-c2ccc(F)cc2)coc2cc(O)ccc12 | inconclusive: 7.31 µM [activator, partial curve] | – |
| Cc1c(C(=O)N2CCOCC2)sc2ncnc(N3CCc4ccccc4C3)c12 | – | inactive: 1.07% |
| Cc1nc2ccc(NC(=O)Cc3ccccc3F)cc2s1 | active: 8.2 µM | – |
| Nc1c(Cl)cc(-c2cn(CCC(=O)O)c(-c3ccncc3)n2)cc1Cl | – | inactive: 2.48% |
| Cc1cc(-c2ccc(F)cc2)nc2cc(C(N)=O)nn12 | – | inactive: -10.6% |
| Cc1cc(C)c2c(=O)[nH]n(C(C)C)c2n1 | inconclusive: 29.1 µM [activator, partial curve, poor fit] | – |
| O=C1CN(C(=O)CSc2nc(-c3ccc(Cl)cc3)cs2)c2ccccc2N1 | – | inactive: 1.17% |
| CCCCCCCCCCCCCCCC[n+]1cccc2ccccc21 | – | inactive: -3.3% |
| CC(=O)c1ccc2oc3ccccc3c(=O)c2c1 | inconclusive: 14.6 µM [activator, single point] | – |
| O=[N+]([O-])c1cccc(-c2nc(-c3ccccn3)no2)c1 | inconclusive: 2.06 µM [activator, full curve] | – |
| O=C(CSc1nc2ccccc2[nH]1)Nc1ccc2[nH]c(=O)[nH]c2c1 | – | inactive: 1.51% |
| O=C(/C=C/c1ccco1)Nc1ccccc1C(=O)O | active: 10.3 µM | – |
| C=CCOC(=O)C(=O)/C=C/c1csc2ccccc12 | inconclusive: 23.1 µM [activator, partial curve, poor fit] | – |
| Cc1ccc(C(=O)N/N=C\c2cccs2)cn1 | – | inactive: -4.28% |
| OC(COc1ccc(OCc2ccccc2)cc1)CN1CCCCC1 (configuration not stated) | active: 16.4 µM | – |
| COc1ccc(Cl)cc1NC(=O)Cn1c(C)csc1=O | – | inactive: 1.38% |
| CCCn1c(N)c(C(=O)CN(C)CC(=O)Nc2ccc(F)cc2)c(=O)[nH]c1=O | – | inactive: 2.24% |
| CC(=O)c1cccc(OC(=O)C2=CC=CN3CCS(=O)(=O)N=C23)c1 | – | inactive: -2.65% |
| CCN1C(=O)/C(=C/N2CCc3ccccc32)SC1=S | active: 6.51 µM | – |
| Nc1c(C(=O)Nc2ccc(Cl)cc2)oc2ccccc12 | active: 2.31 µM | – |
| O=C(Nc1ccc(/C=C/c2nc3ccccc3o2)cc1)c1c(F)cccc1F | active: 1.46 µM | – |
